# Screen size: about 150,000 compounds; about 540 (0.36%) showed an effect of 50% or more. This is one part of the list.
# System: Plasmodium falciparum
# Assay: Primary screen in NF54 nanoGlo assay, in single point, at 2uM, 72h; a lower Z score goes with more inhibition
# Assay type: functional, Erythrocyte
# Conditions: timepoint 72 hour
Compound,% Inhibition,Z score
Cc1nn(C)c(Cl)c1Cn1cnc2c1c(=O)n(C)c(=O)n2C,-14%,2.05
Cc1ccc2c(c1)OCC(=O)N2CC(=O)N1CCC(Cc2ccccc2)CC1,27%,-3.01
CCC1CN(C(=O)Cn2ncc(=O)c3ccccc32)CC1N(C)C (stereo unspecified),-12%,1.52
COc1ccc(OCc2nc(C)c(CCO)c(=O)n2CC(=O)Nc2cccc(OC)c2)cc1,-16%,1.7
Cc1ccccc1OCc1nc2c3c(ncn2n1)Oc1cc(O)ccc1[C@@H]3c1ccccc1,38%,-4.3
O=S1(=O)NC(CN2CCOCC2)=Nc2ccccc21,-6%,1.12
Cc1cc(C)n(CC(=O)N2CCc3onc(-c4cccc5ccccc45)c3C2)n1,-1%,0.05
O=C(NCc1ccc(Cl)cc1)c1c(-c2ccccc2)c(-c2ccccc2)n[nH]c1=O,-6%,0.76
Cc1ncsc1CN1CCN(S(=O)(=O)c2ccc(C(N)=O)o2)CC1,-7%,0.98
NC(=O)C1(NC(=O)c2ccc(Cl)c3occc23)CCC1,11%,-1.26
O=C(c1ccc2c(c1)CCO2)N1CCN(C(=O)[C@@H]2CCCO2)CC1,-28%,3.23
CC(=O)c1c(F)cncc1N1CCCCCCCC1,-7%,0.81
COCCn1cnnc1CCNC(=O)C(C)(C)C,6%,-1.05
CCn1cc(CN(C)C(=O)c2oc3cc(OC)ccc3c2C)cn1,-7%,0.98
COc1ccccc1C1=NS(=O)(=O)N(C)C(C(=O)N2CCN(C)CC2)=C1,-16%,3.09
Cc1ncsc1CN1CCN(C(=O)OCC(C)C)CC1,29%,-3.92
O=C(c1ccno1)N1CCc2sc(Cl)cc2C1,-9%,1.07
CC(=O)c1c(F)cccc1N(C)CC(C)(C)CCO,-9%,1.08
COc1ccc(C(NCC(O)c2cnn(C)c2)C(C)C)c(F)c1 (stereo unspecified),-4%,0.82
CN(C)c1ccc(NC(=O)C2CCC2)cc1CN(Cc1ccco1)C(=O)c1ccccc1Cl,-6%,0.86
CN(c1ccc(S(=O)(=O)N2CCOCC2)cn1)C1CCCCC1,-1%,0.08
COCCN1CC2(CCC1=O)CCN(C(=O)c1nn(C)cc1Cl)CC2,8%,-1.12

Compound,% Inhibition,Z score
CN(C[C@H]1CCCCO1)C(=O)c1cc(O)c2ccccc2c1,-2%,0.33
CN(C)c1nccc(N(C)CCOCC2CC2)n1,-5%,0.42
CN(C)C(=O)c1ccc(C(=O)Nc2cccc(-c3ccc4ccccc4c3)n2)cc1,-6%,0.78
COCC(=O)Nc1ccc(N2CCCN(C(=O)NC(C)(C)C)CC2)c(C(=O)N(C)Cc2ccccc2)c1,-1%,0.11
COCCN(C)c1ncc(S(=O)(=O)N2CCCC2)cc1Cl,1%,-0.17
O=C(N[C@H]1CCOC2(CCOCC2)C1)c1c[nH]c(=O)c(Cl)c1,3%,-0.4
CN1C[C@@H](CN2CCN(c3ccccc3)CC2)CC1=O,-4%,0.56
Cc1cnc(Cn2ccnc2-c2cc3ccccc3o2)cn1,-9%,1.78
CC[C@H](NC(=O)Cc1c(C)n[nH]c1C)c1nc(C)c(C)s1,-20%,1.79
CC(C)C1Nc2c(C(=O)O)cccc2C(Nc2ccccc2C(=O)O)C1(C)C (stereo unspecified),3%,-0.33
CCCCNC(=O)c1ccc(-c2cc(N)nc3[nH]ccc23)o1,10%,-1.8
Cc1cc(CN(C)CC2CC(NC(=O)OC(C)(C)C)C2)no1 (stereo unspecified),-8%,1.27
CC(=O)C1C(c2cn(-c3ccccc3)nc2-c2ccccc2)NC(=O)NC1(O)C(F)(F)F (stereo unspecified),-25%,4.33
CN=C(NCc1nc(C)c(C)s1)NC[C@H]1COc2ccccc2O1,5%,-0.99
CCOc1cc(N2CCOCC2)c(OCC)cc1NC(=O)C(=O)c1ccc(C)cc1,16%,-1.89
C[C@H](Oc1ccc(NC(=O)C2(c3cccnc3)CCCC2)cc1F)C(=O)O,-4%,0.44
CC[C@H](C)N(Cc1ccsc1)C(=O)c1cnn(CC)c1,-15%,1.47
O=C(c1nccn2ccnc12)N(Cc1cccs1)Cc1cccs1,-8%,1.23
CC(C)OC(=O)N[C@H]1CCCCN(S(=O)(=O)C2CC2)C1,-12%,1.62
O=c1scc(-c2cccc(F)c2)n1Cc1nnsc1Cl,-15%,2.92
C[C@@H](C(=O)Nc1ccccc1C(F)(F)F)S(C)(=O)=O,-12%,1.55

# Reference: ChEMBL document CHEMBL4888484, “Replenishing the malaria drug discovery pipeline: Screening and hit evaluation of the MMV Hit Generation Library 1 (HGL1) against asexual blood stage Plasmodium falciparum ,using a nano luciferase reporter read-out” (2022)
